We go through 31 molecules from publication PMC9911399, “Two distinct binding modes provide the RNA-binding protein RbFox with extraordinary sequence specificity”.

Substitutions are numbered along the chain they refer to; changes in the protein carry UniProt numbers. Some of the results follow.

The chains are these.
T1: RBFOX1 RRM RbFoxmut (Fox-RRM*) (Homo sapiens, UniProt Q9NWB1 109-208, R118D;E147R;N151S;E152T)
T1 sequence: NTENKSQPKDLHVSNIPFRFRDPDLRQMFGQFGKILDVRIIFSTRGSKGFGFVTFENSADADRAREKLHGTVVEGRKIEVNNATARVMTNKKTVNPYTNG

B1: ACACGGU (DNA:RNA)
RNA: GGGAGACCGGAAUUCAGAUUGUCCACACGGUUUAAAUCCCGUCGUAGCCACCA
DNA 1: CAATCTGAATTCCGGTCTCCC
DNA 2: TGGTGGCTACGACGGGATT
B2: CAAUACC (DNA:RNA)
RNA: B1 RNA with A25C, C26A, C28U, G29A, G30C, U31C
DNA 1: CAATCTGAATTCCGGTCTCCC
DNA 2: TGGTGGCTACGACGGGATT
B3: ACAUCUC (DNA:RNA)
RNA: B1 RNA with C28U, G29C, G30U, U31C
DNA 1: CAATCTGAATTCCGGTCTCCC
DNA 2: TGGTGGCTACGACGGGATT
B4: GGCUGAA (DNA:RNA)
RNA: B1 RNA with A25G, C26G, A27C, C28U, G30A, U31A
DNA 1: CAATCTGAATTCCGGTCTCCC
DNA 2: TGGTGGCTACGACGGGATT
B5: AAAAAUG (DNA:RNA)
RNA: B1 RNA with C26A, C28A, G29A, G30U, U31G
DNA 1: CAATCTGAATTCCGGTCTCCC
DNA 2: TGGTGGCTACGACGGGATT
B6: UACCACC (DNA:RNA)
RNA: B1 RNA with A25U, C26A, A27C, G29A, G30C, U31C
DNA 1: CAATCTGAATTCCGGTCTCCC
DNA 2: TGGTGGCTACGACGGGATT
B7: UAAAUAC (DNA:RNA)
RNA: B1 RNA with A25U, C26A, C28A, G29U, G30A, U31C
DNA 1: CAATCTGAATTCCGGTCTCCC
DNA 2: TGGTGGCTACGACGGGATT
B8: UGGUUAC (DNA:RNA)
RNA: GGGAGACCGGAAUUCAGAUUGUCCUGGUUACUUAAAUCCCGUCGUAGCCACCA
DNA 1: CAATCTGAATTCCGGTCTCCC
DNA 2: TGGTGGCTACGACGGGATT
B9: UAACUGC (DNA:RNA)
RNA: B1 RNA with A25U, C26A, G29U, U31C
DNA 1: CAATCTGAATTCCGGTCTCCC
DNA 2: TGGTGGCTACGACGGGATT
B10: UCUUCAA (DNA:RNA)
RNA: B8 RNA with G26C, G27U, U29C, C31A
DNA 1: CAATCTGAATTCCGGTCTCCC
DNA 2: TGGTGGCTACGACGGGATT
B11: UGGACAG (DNA:RNA)
RNA: B8 RNA with U28A, U29C, C31G
DNA 1: CAATCTGAATTCCGGTCTCCC
DNA 2: TGGTGGCTACGACGGGATT
B12: UGAACUU (DNA:RNA)
RNA: B1 RNA with A25U, C26G, C28A, G29C, G30U
DNA 1: CAATCTGAATTCCGGTCTCCC
DNA 2: TGGTGGCTACGACGGGATT
B13: GGGGCCG (DNA:RNA)
RNA: B8 RNA with U25G, U28G, U29C, A30C, C31G
DNA 1: CAATCTGAATTCCGGTCTCCC
DNA 2: TGGTGGCTACGACGGGATT
B14: AGCUUUU (DNA:RNA)
RNA: B8 RNA with U25A, G27C, A30U, C31U
DNA 1: CAATCTGAATTCCGGTCTCCC
DNA 2: TGGTGGCTACGACGGGATT
B15: UGCUUGC (DNA:RNA)
RNA: B8 RNA with G27C, A30G
DNA 1: CAATCTGAATTCCGGTCTCCC
DNA 2: TGGTGGCTACGACGGGATT
B16: CGAAGUC (DNA:RNA)
RNA: B1 RNA with A25C, C26G, C28A, G30U, U31C
DNA 1: CAATCTGAATTCCGGTCTCCC
DNA 2: TGGTGGCTACGACGGGATT
B17: GGCCUUC (DNA:RNA)
RNA: B8 RNA with U25G, G27C, U28C, A30U
DNA 1: CAATCTGAATTCCGGTCTCCC
DNA 2: TGGTGGCTACGACGGGATT
B18: CUGAGGC (DNA:RNA)
RNA: B1 RNA with A25C, C26U, A27G, C28A, U31C
DNA 1: CAATCTGAATTCCGGTCTCCC
DNA 2: TGGTGGCTACGACGGGATT
B19: CGUGUGU (DNA:RNA)
RNA: B1 RNA with A25C, C26G, A27U, C28G, G29U
DNA 1: CAATCTGAATTCCGGTCTCCC
DNA 2: TGGTGGCTACGACGGGATT
B20: UCCGAAU (DNA:RNA)
RNA: B1 RNA with A25U, A27C, C28G, G29A, G30A
DNA 1: CAATCTGAATTCCGGTCTCCC
DNA 2: TGGTGGCTACGACGGGATT
B21: UAGCUUG (DNA:RNA)
RNA: B8 RNA with G26A, U28C, A30U, C31G
DNA 1: CAATCTGAATTCCGGTCTCCC
DNA 2: TGGTGGCTACGACGGGATT
B22: GAAAACG (DNA:RNA)
RNA: B1 RNA with A25G, C26A, C28A, G29A, G30C, U31G
DNA 1: CAATCTGAATTCCGGTCTCCC
DNA 2: TGGTGGCTACGACGGGATT
B23: CUGAUAU (DNA:RNA)
RNA: B8 RNA with U25C, G26U, U28A, C31U
DNA 1: CAATCTGAATTCCGGTCTCCC
DNA 2: TGGTGGCTACGACGGGATT
B24: CUGCCCA (DNA:RNA)
RNA: B1 RNA with A25C, C26U, A27G, G29C, G30C, U31A
DNA 1: CAATCTGAATTCCGGTCTCCC
DNA 2: TGGTGGCTACGACGGGATT
B25: CUGUAAC (DNA:RNA)
RNA: B8 RNA with U25C, G26U, U29A
DNA 1: CAATCTGAATTCCGGTCTCCC
DNA 2: TGGTGGCTACGACGGGATT
B26: GCCGCAC (DNA:RNA)
RNA: B8 RNA with U25G, G26C, G27C, U28G, U29C
DNA 1: CAATCTGAATTCCGGTCTCCC
DNA 2: TGGTGGCTACGACGGGATT
B27: CGUGUAU (DNA:RNA)
RNA: B8 RNA with U25C, G27U, U28G, C31U
DNA 1: CAATCTGAATTCCGGTCTCCC
DNA 2: TGGTGGCTACGACGGGATT
B28: UUUGCCC (DNA:RNA)
RNA: B8 RNA with G26U, G27U, U28G, U29C, A30C
DNA 1: CAATCTGAATTCCGGTCTCCC
DNA 2: TGGTGGCTACGACGGGATT
B29: AAGCCAA (DNA:RNA)
RNA: B1 RNA with C26A, A27G, G29C, G30A, U31A
DNA 1: CAATCTGAATTCCGGTCTCCC
DNA 2: TGGTGGCTACGACGGGATT
B30: UGAGUGU (DNA:RNA)
RNA: B1 RNA with A25U, C26G, C28G, G29U
DNA 1: CAATCTGAATTCCGGTCTCCC
DNA 2: TGGTGGCTACGACGGGATT
B31: GGAACAU (DNA:RNA)
RNA: B1 RNA with A25G, C26G, C28A, G29C, G30A
DNA 1: CAATCTGAATTCCGGTCTCCC
DNA 2: TGGTGGCTACGACGGGATT

The target in the assay is T1, RBFOX1 RRM RbFoxmut (Fox-RRM*). The assay can be described thus: EMSA; HiTS-Eq, 1 nM pool, 10 min; buffer printed only for the single-RNA assays: 10 mM Tris pH 7.5, 150 mM NaCl, 3.4 mM EDTA, 0.001% NP-40, 30 C. As to conditions: tags: His6 N-terminal (pET28a); label: 5' 32P. In short, it runs like this: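 Purified RbFox RRM (wild type or mutant) was equilibrated for 10 min in 50 µL with 1 nM of a 5′-radiolabelled pool of RNA with 7 randomized nucleotides, its flanks annealed to DNA oligonucleotides, across increasing protein concentrations. Free RNA was separated by 8% native PAGE, excised, reverse-transcribed, PCR-barcoded and sequenced on an Illumina HiSeq 2500. Relative association constants came from read-count changes of each variant against the control reaction, normalised to the cognate motif.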
(In general: Mobility shift assays separate free from complexed probe on a gel.)
Consider B1, for which the binding signal was 0.0918 KA relative to UGCAUGU.

For the molecule B2, the binding signal is 0.105 KA relative to UGCAUGU. As for B3, the figure is 0.0994 KA relative to UGCAUGU; as for B4, 0.114 KA relative to UGCAUGU. As for B5, the figure is 0.0868 KA relative to UGCAUGU; as for B6, 0.075 KA relative to UGCAUGU. As for B7, the binding signal was 0.0711 KA relative to UGCAUGU. For the molecule B8, the binding signal is 0.127 KA relative to UGCAUGU. For the molecule B9, the binding signal is 0.0588 KA relative to UGCAUGU. As for B10, the figure is 0.059 KA relative to UGCAUGU; as for B11, 0.0526 KA relative to UGCAUGU. The same measure for B12: 0.0736 KA relative to UGCAUGU. In the case of B13, the binding signal is 0.201 KA relative to UGCAUGU. As for B14, the figure is 0.0877 KA relative to UGCAUGU; as for B15, 0.264 KA relative to UGCAUGU. Regarding B16, the binding signal is 0.0864 KA relative to UGCAUGU.

On to B17, for which the binding signal was 0.195 KA relative to UGCAUGU.

As for B18, the binding signal is 0.0918 KA relative to UGCAUGU. The same measure for B19: 0.249 KA relative to UGCAUGU; for B20: 0.0661 KA relative to UGCAUGU. The same measure for B21: 0.21 KA relative to UGCAUGU; for B22: 0.0811 KA relative to UGCAUGU. Regarding B23, the binding signal is 0.0873 KA relative to UGCAUGU. For B24, the binding signal was 0.0869 KA relative to UGCAUGU. The same measure for B25: 0.099 KA relative to UGCAUGU. Regarding B26, the binding signal was 0.0799 KA relative to UGCAUGU. As for B27, the figure is 0.211 KA relative to UGCAUGU; as for B28, 0.0706 KA relative to UGCAUGU; as for B29, 0.0827 KA relative to UGCAUGU.

Turning to B30, the binding signal is 0.175 KA relative to UGCAUGU. Turning to B31, the binding signal was 0.0858 KA relative to UGCAUGU.
